One may read the Kd as the concentration at which binding is half-saturated.

Experimental findings from US20230365642A1 (MEDICENNA THERAPEUTICS, published 2023) are described below.

In experiment [1] the target is T1, IL13Rα2 Protein, Human, Recombinant, His Tag (human, UniProt Q14627 27-343).
T1 construct: also called human IL13Rα2; IL13Ra2; not shown: His tag
T1 sequence (looked up): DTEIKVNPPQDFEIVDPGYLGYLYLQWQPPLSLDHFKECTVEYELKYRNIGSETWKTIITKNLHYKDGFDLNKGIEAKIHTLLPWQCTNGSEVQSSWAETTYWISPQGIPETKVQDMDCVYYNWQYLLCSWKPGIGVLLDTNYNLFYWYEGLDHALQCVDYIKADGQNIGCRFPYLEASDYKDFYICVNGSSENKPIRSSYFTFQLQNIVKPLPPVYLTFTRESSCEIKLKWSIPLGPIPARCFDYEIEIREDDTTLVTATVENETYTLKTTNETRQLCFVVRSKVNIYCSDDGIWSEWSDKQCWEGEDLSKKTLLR
Kind of experiment: SPR (Biacore T200), construct captured by its Fc, receptor flown over, multi cycle kinetics.

The target of experiment [2] is T2, high affinity IL-2 receptor (IL-2R) consisting of CD122, CD132 and CD25, on CTLL-2 cells (mouse, UniProt P01590 22-268; P16297 27-539; P34902 23-369).
T2 sequence (looked up) 1: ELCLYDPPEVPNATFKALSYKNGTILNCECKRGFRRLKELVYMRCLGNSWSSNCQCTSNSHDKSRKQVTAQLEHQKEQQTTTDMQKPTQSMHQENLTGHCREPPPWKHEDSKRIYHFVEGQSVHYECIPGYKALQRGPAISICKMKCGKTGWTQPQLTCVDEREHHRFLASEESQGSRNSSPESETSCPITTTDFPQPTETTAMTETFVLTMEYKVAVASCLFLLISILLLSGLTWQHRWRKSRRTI
T2 sequence (looked up) 2: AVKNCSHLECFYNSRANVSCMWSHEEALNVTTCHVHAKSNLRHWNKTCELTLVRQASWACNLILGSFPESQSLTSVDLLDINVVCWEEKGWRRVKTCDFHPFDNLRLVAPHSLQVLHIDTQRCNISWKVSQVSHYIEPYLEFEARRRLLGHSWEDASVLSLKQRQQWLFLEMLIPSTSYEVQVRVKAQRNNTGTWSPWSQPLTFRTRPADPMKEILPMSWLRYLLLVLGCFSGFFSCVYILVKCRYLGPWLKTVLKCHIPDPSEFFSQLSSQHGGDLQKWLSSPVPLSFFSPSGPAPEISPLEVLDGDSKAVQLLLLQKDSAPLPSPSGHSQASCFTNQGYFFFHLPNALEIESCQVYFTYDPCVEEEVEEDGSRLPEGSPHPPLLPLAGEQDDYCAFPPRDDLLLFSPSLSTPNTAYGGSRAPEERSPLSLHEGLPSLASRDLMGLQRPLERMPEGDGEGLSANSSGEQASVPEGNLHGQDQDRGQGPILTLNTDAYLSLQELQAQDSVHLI
T2 sequence (looked up) 3: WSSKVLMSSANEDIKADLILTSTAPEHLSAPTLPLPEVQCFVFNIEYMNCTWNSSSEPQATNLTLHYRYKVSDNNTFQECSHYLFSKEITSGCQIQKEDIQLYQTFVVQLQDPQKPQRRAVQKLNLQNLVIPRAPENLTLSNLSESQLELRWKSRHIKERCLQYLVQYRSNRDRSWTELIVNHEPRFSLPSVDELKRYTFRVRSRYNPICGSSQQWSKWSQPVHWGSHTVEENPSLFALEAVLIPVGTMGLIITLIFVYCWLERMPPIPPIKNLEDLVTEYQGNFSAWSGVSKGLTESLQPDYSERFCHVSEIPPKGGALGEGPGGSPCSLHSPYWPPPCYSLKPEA
As to the kind of experiment: cell-based or functional assay.

The target in experiment [3] is T3, IL4R Type-II (IL4Rα chain with IL13Rα1), on cells (UniProt P24394 26-825; P78552 22-427, limits assumed).
T3 sequence (looked up) 1: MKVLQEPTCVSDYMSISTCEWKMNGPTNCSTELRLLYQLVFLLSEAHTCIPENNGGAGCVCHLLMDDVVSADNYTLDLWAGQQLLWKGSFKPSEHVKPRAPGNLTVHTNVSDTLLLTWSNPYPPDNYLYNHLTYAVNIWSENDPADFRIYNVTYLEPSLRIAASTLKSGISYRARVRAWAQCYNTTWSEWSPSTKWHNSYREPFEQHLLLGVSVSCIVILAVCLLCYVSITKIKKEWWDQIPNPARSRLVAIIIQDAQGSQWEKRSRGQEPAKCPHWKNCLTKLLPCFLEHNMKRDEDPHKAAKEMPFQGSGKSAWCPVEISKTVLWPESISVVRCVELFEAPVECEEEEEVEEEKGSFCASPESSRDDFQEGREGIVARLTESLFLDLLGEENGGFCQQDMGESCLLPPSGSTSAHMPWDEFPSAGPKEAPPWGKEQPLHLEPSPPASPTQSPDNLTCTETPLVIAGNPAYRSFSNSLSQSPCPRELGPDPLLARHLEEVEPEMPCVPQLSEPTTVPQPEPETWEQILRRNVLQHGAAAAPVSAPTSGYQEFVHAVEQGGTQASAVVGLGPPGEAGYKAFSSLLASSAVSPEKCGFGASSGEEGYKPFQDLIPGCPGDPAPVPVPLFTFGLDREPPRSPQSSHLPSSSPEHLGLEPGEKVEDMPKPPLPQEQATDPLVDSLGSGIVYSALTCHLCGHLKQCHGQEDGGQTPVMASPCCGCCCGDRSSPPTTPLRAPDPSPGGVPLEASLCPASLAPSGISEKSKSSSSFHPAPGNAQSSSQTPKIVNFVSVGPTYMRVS
T3 sequence (looked up) 2: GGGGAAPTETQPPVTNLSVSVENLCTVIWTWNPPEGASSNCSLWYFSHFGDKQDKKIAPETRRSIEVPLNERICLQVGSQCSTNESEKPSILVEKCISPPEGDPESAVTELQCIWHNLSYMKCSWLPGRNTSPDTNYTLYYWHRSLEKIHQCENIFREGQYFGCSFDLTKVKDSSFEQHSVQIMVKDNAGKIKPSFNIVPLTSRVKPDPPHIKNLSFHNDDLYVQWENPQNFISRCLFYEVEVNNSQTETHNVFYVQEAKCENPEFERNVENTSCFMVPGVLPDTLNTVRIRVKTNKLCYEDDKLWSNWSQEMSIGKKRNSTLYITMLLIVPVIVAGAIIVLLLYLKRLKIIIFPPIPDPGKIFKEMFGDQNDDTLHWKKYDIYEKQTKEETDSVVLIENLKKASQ
Kind of experiment: cell-based or functional assay.

The target in experiment [4] is T4, IL13Rα2 Protein, Mouse, Recombinant, His Tag (mouse, UniProt O88786 22-334, limits assumed).
T4 construct: also called mouse IL13Rα2; mIL13Rα2; not shown: His tag
T4 sequence (looked up): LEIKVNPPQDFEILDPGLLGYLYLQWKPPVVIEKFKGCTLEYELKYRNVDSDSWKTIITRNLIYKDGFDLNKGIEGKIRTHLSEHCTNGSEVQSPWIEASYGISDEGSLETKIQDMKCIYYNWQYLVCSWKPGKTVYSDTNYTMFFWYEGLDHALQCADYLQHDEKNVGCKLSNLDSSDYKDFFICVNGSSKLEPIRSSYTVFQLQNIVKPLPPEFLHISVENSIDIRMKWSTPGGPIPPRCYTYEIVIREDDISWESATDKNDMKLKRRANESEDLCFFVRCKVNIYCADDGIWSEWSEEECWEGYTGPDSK
As to the kind of experiment: ELISA, receptor coated on plate, anti-human IgG Fc detection. In general terms: ELISA stands for enzyme-linked immunosorbent assay.

The target in experiment [5] is T5, IL4Rα Protein, Mouse, Recombinant (ECD, His Tag) (aa 1-233, ECD) (mouse, UniProt P16382 26-233).
T5 construct: extracellular domain; The stated range 1-233 includes the signal peptide of the expression construct; also called mouse IL4R; mouse IL4Rα; not shown: His tag
T5 sequence (looked up): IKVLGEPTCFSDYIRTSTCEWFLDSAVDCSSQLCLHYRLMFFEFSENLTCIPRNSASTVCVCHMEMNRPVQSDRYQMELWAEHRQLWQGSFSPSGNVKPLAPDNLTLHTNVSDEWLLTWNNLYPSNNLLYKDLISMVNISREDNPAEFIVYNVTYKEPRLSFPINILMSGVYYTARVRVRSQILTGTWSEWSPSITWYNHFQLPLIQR
The description is as above.

The target of experiment [6] is T6, IL13Rα Protein, Human, Recombinant, His Tag (human IL13Rα1) (human, UniProt P78552 22-343, limits assumed).
T6 construct: also called hIL13Rα1; IL13Ra1; not shown: His tag
T6 sequence (looked up): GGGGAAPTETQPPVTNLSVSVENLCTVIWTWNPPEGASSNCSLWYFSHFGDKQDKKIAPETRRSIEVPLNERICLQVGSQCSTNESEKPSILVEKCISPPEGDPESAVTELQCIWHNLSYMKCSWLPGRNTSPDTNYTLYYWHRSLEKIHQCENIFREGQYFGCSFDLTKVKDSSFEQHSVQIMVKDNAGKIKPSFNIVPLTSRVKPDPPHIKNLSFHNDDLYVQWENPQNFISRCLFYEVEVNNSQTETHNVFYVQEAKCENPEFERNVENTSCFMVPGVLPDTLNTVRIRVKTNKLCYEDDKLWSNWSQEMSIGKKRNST
As to the kind of experiment: SPR (Biacore T200), construct captured by its Fc, receptor flown over, multi cycle kinetics.

B1: Fc-MDNA413 (1:2) (Fc fusion)
chain: [human IgG1 Fc with changes not listed]GGGSGGGGSGGGGSPGPVPPSTAVRALIEELINITQNQKAPLCNGSMVWSINRTAGMYCAALESLINVSGCSAIEKTQDMLSGFCPHKVSAGQFSSLHVRSSKIEVAQFVKDLLFHLRTLFREGQFN
Regarding B1, the dissociation constant Kd in experiment [1] was 9.73 nM.

B2: H4FEAA-Fc-MDNA413^L39/Q111 (2:1:2) (Fc fusion)
chain: APTSSSTKKTQLQLEHLLLDLQMILNGINNYKNPKLTRMLTAKFYMPKKATELKHLQCLEEALKPLEEVLNLASSKNFHFTPRDVVSNINVFVLELKGSETTFMCEYADETATIVEFLNRWITFSQSIISTLTGGGGSGGGGSGGGGS[human IgG1 Fc with changes not listed]GGGSGGGGSGGGGSPGPVPPSTAVRALIEELINITQNQKAPLCNGSMVWSINLTAGMYCAALESLINVSGCSAIEKTQDMLSGFCPHKVSAGQFSSLHVRSSKIEVAQFVKDLLFHLRTLFREGQFN
B2: the “CTTL-2 Assay, EC50 (pM)” value in experiment [2] amounted to 20900 pM. Also, the “IL 13 EC50 (nM); IL-13 competitive assay, HEK-Blue IL-4/IL-13 reporter cells” value in experiment [3] turned out to be 1120 nM.

B3: MDNA413^L39/Q111-Fc-MDNA413^L39/Q111 (2:1:2) (Fc fusion)
chain: PGPVPPSTAVRALIEELINITQNQKAPLCNGSMVWSINLTAGMYCAALESLINVSGCSAIEKTQDMLSGFCPHKVSAGQFSSLHVRSSKIEVAQFVKDLLFHLRTLFREGQFNGGGGSGGGGSGGGGS[human IgG1 Fc with changes not listed]GGGSGGGGSGGGGSPGPVPPSTAVRALIEELINITQNQKAPLCNGSMVWSINLTAGMYCAALESLINVSGCSAIEKTQDMLSGFCPHKVSAGQFSSLHVRSSKIEVAQFVKDLLFHLRTLFREGQFN
Turning to B3, in experiment [3], the “IL4 EC50 (nM); IL-4 competitive assay, HEK-Blue IL-4/IL-13 reporter cells” value was 326 nM and the “IL 13 EC50 (nM); IL-13 competitive assay, HEK-Blue IL-4/IL-13 reporter cells” value turned out to be 601 nM.

B4: Human recombinant Fc-IL13 (Control) (Fc fusion)
chain: not shown
notes: also called Fc-hIL13; Fc-WT IL13; not shown: Fc tag of the bought protein (Sino Biological 10369-H01H)
With B4, the values for the binding result in experiment [4] and in experiment [5] were “binds” and “no binding”, respectively. Moreover, the Kd in experiment [1] was 0.144 nM; in experiment [6], 68 nM.
